# Experimental data as given in PMC12136788.
# This is one part of the list.
# B1: chr1:203340627:203342342:-|three_prime_utr|ENSG00000122176|control|control|control (ssRNA)
# RNA: GGGAGUUCUACAGUCCGACGAUCUGGCUUUUGCUGGAAGGUCCAGGAUGGACCAUGUGACAGAAGUCCACGGGCACCCUCUGUAGUCUUCUUUCCUGUAGGUGGGGUUAGGGGGGGCGAUCAGGGACAGGCAGCCUUCUGCUGCAACAGAGGAUUGAGCAUCA
# B2: ENSG00000107863:be:win_1651|CDS|ENSG00000107863|bound_else_gene|NA|bound_elsewhere_windowed (ssRNA)
# RNA: GGGAGUUCUACAGUCCGACGAUCAAAUCUUUUCGAGGUUCCAAUUUUACUGUGGCUCCAAGCGUUGUUAAUUCUGAUAACAGGCGAAUGAGUGGUAGAGGAGUGGGAUCUGUGUCGCAGUUUAAAAAAAUUCCACCAGAUCUACAACAGAGGAUUGAGCAUCA
# B3: chr19:9526975:9527076:-|3pUTR|ENSG00000130818|unk|FALSE|unique (ssRNA)
# RNA: GGGAGUUCUACAGUCCGACGAUCCCUCUCAGACCUUCCAUCAUUACUAUAUUUCACUUUUAUGCCUAUAAACACACACAAAUUAGCAUAUGUAAUCUAAUACAUUGUAGCUAUUUUUCAGAAGUUAUCAGAUCAAUUAAGUAUCAACAGAGGAUUGAGCAUCA
# B4: chr10:27397735:27399240:-|CDS|ENSG00000182077|control|control|control (ssRNA)
# RNA: GGGAGUUCUACAGUCCGACGAUCUCUUCUAGGCUACCCAGUGUUACAAAGUGCAAUUUCAACAAUAAUAGGGGUGUGUGUUUUAGCUGCAGCGAAAGCAUACAUCUUCAGAACAUUUUUUAAGAUUAUGUUUCUUGUUAUGAUCAACAGAGGAUUGAGCAUCA
# B5: chr19:14119889:14120036:-|3pUTR|ENSG00000105011|msi1|FALSE|unique (ssRNA)
# RNA: GGGAGUUCUACAGUCCGACGAUCAGCAGACCCACUCCAGCUUUCUGGUGUCACAGGCGGGAAUGUUAGUUAGUAGGUAGACUUAGAUCCCAUUUCUGUCCUGCUCCCAGGAAGAUUCUUAGGUCCUCUUCAAUCCAGCAGCCCCAACAGAGGAUUGAGCAUCA
# B6: chr14:81473690:81473791:-|3pUTR|ENSG00000071537|msi1|FALSE|unique (ssRNA)
# RNA: GGGAGUUCUACAGUCCGACGAUCCAGUGUUUUGGAAGUAUGCAUGCAGGCCUAUAAAUGAAAAACACAAUUCUUUAUGUGUAUAGCAUGUGUAUUAAUGUCUAACUACAUACGCAAAAACUUCCUUUACAGAGGUUCGGACUACAACAGAGGAUUGAGCAUCA
# B7: chr15:39595431:39595532:+|3pUTR|ENSG00000137801|msi1_unk|FALSE|overlapping (ssRNA)
# RNA: GGGAGUUCUACAGUCCGACGAUCCCCCAGGAUCACUUCUCCUUGGCUUCCUUCUUUUCUGUGCUUGCAUCAGUGUGGACUCCUAGAACGUGCGACCUGCCUCAAGAAAAUGCAGUUUUCAAAAACAGACUCAGCAUUCAGCCUCAACAGAGGAUUGAGCAUCA
# B8: chr16:70572763:70572864:+|3pUTR|ENSG00000189091|msi1|FALSE|bound_elsewhere (ssRNA)
# RNA: GGGAGUUCUACAGUCCGACGAUCUCUGCAGCACCCAUCUCAGGUGGGUUCCAGAGGGCCUUUAGGGUAUAAUGAGAGCCUGUUAGGUGGAAGAGGCCCAGUUCCAGAAAUGUUCCAGCCCACCCCUGAGAAUUCCUCCUGUUUCAACAGAGGAUUGAGCAUCA
# B9: ENSG00000124766:be:win_3401|3pUTR|ENSG00000124766|bound_else_gene|NA|bound_elsewhere_windowed (ssRNA)
# RNA: GGGAGUUCUACAGUCCGACGAUCCUGUAAGCUUUUAAGAAAAACAAAGUUUUAAACGAAAUACUGCUCUGUCCAGAGGCUUUAAAACUGGUGCAAUUACAGCAAAAAGGGAUUCUGUAGCUUUAACUUGUAAACCACAUCUUUCAACAGAGGAUUGAGCAUCA
# B10: chr15:97973610:97973711:+|3pUTR|ENSG00000140450|unk|FALSE|unique (ssRNA)
# RNA: GGGAGUUCUACAGUCCGACGAUCGGUGCACAAAAUCCUUCUGUGGGCAAAACUUUGUUUUUGUUUUGCACAGUAAGAAACAAUAGGCAAGCGUUAUGUUUUUGGUAAGUUAACUAUGAAAGCUUUCUUAUUUUUAUUAUUAAACAACAGAGGAUUGAGCAUCA
# B11: chr16:58973:59127:-|CDS|ENSG00000007384|control|control|control (ssRNA)
# RNA: GGGAGUUCUACAGUCCGACGAUCCAUCUGCUUCCAGAUGACUGUCCUGCGGGACCUGGAGAAGCUGGCAGGCUGGCACCGCAUAGCCAUCAUCUACCUGCUGAGUGGUGUCACCGGCAACCUGGCCAGUGCCAUCUUCCUGCCCAACAGAGGAUUGAGCAUCA
# B12: chr2:121339258:121339359:-|3pUTR|ENSG00000074054|unk|FALSE|unique (ssRNA)
# RNA: GGGAGUUCUACAGUCCGACGAUCUUUUGAGAUUAAUUCUAAUAACGUAUUUGCUAUUGCAGUGCAGAGCCCACUGCAACUGCUAGGACUGAAAGCAGAGGCUGGGUGCCAGAGCACGUGAUUCUUAACAUCAUUUCCACAGACCAACAGAGGAUUGAGCAUCA
# B13: chr5:178185721:178187299:-|CDS|ENSG00000244234|control|control|control (ssRNA)
# RNA: GGGAGUUCUACAGUCCGACGAUCAGCAUAGCAUUUAGAUUACGCUUGGCUUCUUUUGAUAGUAGUGGAAAACUAGUAUGUAGUAGAACAACUGGCUAUCAAAUACUUAUACUUAAAAAGGAUCAGGAACAAGUGGUGAUGAACCAACAGAGGAUUGAGCAUCA
# B14: chr1:33300114:33300153:+|3pUTR|ENSG00000160094|msi1_unk|total|mutant (ssRNA)
# RNA: GGGAGUUCUACAGUCCGACGAUCCCCUGCCCCCAGCCCCCACAGACACACCCCAAUCUGAAAGCCAUGCGUGUCGGUGUAUACCGGAACCAUGUACAGAGCCCAGAGAAGCCCCCUACAUCCCCCCGGGAAAAAAAAGAAAACCAACAGAGGAUUGAGCAUCA
# B15: ENSG00000130764:stop:overlap|stop_codon|ENSG00000130764|stop_codon|NA|stop_codon (ssRNA)
# RNA: GGGAGUUCUACAGUCCGACGAUCCAGGGUACAAAGAAAGCAUUCUCUUUCCAAAGGAGACGUUGUGGAACCAGUCUGUCAUCUAGAUGGCCCUGACGUGAGGGAAGUGGAAGGUGUUAGGAGCGGAGAUACCUUCACUUGCUGCAACAGAGGAUUGAGCAUCA
# B16: chr9:35074926:35075082:-|three_prime_utr|ENSG00000221829|control|control|control (ssRNA)
# RNA: GGGAGUUCUACAGUCCGACGAUCUGUGAGCAGGGAUGUAAGUCAGAUGCGGCACUGCAGCAGCUUCGGGCAGCCGCCCUAAUUAGUCGUGGACUGGAAUGGGUAGCCAGCGGCCAGGAUACCAAAGCCUUACAGGACUUCCUCCAACAGAGGAUUGAGCAUCA
# B17: chr5:151662667:151662729:-|3pUTR|ENSG00000113140|msi1_unk|FALSE|overlapping (ssRNA)
# RNA: GGGAGUUCUACAGUCCGACGAUCGCCAGGCUGUUUCAGCCAGGAAGGCCAAAAUCAAGAGUGAGAUGUAGAAAGUUGUAAAAUAGAAAAAGUGGAGUUGGUGAAUCGGUUGUUCUUUCCUCACAUUUGGAUGAUUGUCAUAAGCAACAGAGGAUUGAGCAUCA
# B18: chr1:145912163:145912566:-|CDS|ENSG00000131779|control|control|control (ssRNA)
# RNA: GGGAGUUCUACAGUCCGACGAUCCCCACUUCUGCUAGACGUGGUCAGAAAUGCCUGUGAUCUCUUCAUUCCUCUGGACAAACUAGGCCUCUGGCGCUGUGGCCCUGGGAUUGUGGGGCUUUGUGGCCUCGUGUCCUCCAUCCUCAACAGAGGAUUGAGCAUCA
# B19: chrX:133301433:133301604:-|3pUTR|ENSG00000076716|msi1|total|mutant (ssRNA)
# RNA: GGGAGUUCUACAGUCCGACGAUCUUGUUUUUCUUGGGGGAUGGGGUGGGGUGGGAGCCGGCCGAGCUGAGAAUACUACAUCUCCGUGGUGACCUUCCGCCACGUGGGUGAAGUGGCAAAGGCCAUGGCCAUAUCUGUUGUCCCCAACAGAGGAUUGAGCAUCA
# B20: chr7:21908192:21908293:-|CDS|ENSG00000164649|msi1|FALSE|unique (ssRNA)
# RNA: GGGAGUUCUACAGUCCGACGAUCUUUUCUAGCGCACGCUUACAGAAUGAGAAAAAAACAAUUCUUGAAAGAAAGAAAGACUGUAGACAGGUGAUACAAAGGGAAGAUUCUACCUCUGAGUCUGAGGAUGACUCUCGGGAUGAGCAACAGAGGAUUGAGCAUCA
# B21: ENSG00000124766:be:win_1301|CDS|ENSG00000124766|bound_else_gene|NA|bound_elsewhere_windowed (ssRNA)
# RNA: GGGAGUUCUACAGUCCGACGAUCUUAACUUCGAGCCCGGCUCCGGCUCGCACUUCGAGUUCCCGGACUACUGCACGCCCGAGGUGAGCGAGAUGAUCUCGGGAGACUGGCUCGAGUCCAGCAUCUCCAACCUGGUUUUCACCUCAACAGAGGAUUGAGCAUCA
# B22: chr5:113014749:113014850:+|3pUTR|ENSG00000172795|msi1|total|mutant (ssRNA)
# RNA: GGGAGUUCUACAGUCCGACGAUCUAAAAAUCCUUUUUUACAGUGGUAUCCACAAAAUACUUCUCUGCUUAUAAAUGUUAUUGCCGAAAUCUUUAUUCUGUGCCGGCCGCCUAUUUAAUUGGGUUCCACUGAACCUCAUGGGACCAACAGAGGAUUGAGCAUCA
# Target: MSI1 full-length (mouse, UniProt Q61474 1-362)
# UniProt Q61474, sequence (Q61474 whole entry): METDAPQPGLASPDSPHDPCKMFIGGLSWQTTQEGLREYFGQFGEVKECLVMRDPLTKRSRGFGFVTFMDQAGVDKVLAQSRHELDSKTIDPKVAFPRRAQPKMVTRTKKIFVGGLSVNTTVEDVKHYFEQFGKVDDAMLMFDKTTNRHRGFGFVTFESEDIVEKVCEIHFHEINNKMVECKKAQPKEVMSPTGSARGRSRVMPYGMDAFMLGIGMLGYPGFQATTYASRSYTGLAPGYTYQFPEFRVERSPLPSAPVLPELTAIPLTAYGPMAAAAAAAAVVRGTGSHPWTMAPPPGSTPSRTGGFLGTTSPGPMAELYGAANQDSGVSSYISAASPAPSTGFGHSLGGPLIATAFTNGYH
# Assay: nsRBNS (natural sequence RNA bind-n-seq); RBNS binding buffer (assumed for nsRBNS): 25 mM Tris pH 7.5, 150 mM KCl, 3 mM MgCl2, 0.01% Triton X-100, 500 ug/ml BSA, 20 U/ml SUPERase-In, 4 C; UNK is unkempt and MSI1 is Musashi-1; names of the RNAs are library labels; protein concentration not given here; high values mean tight binding
row,Binder,binding signal [enrichment R]
1,B1,0.733
2,B2,0.432
3,B3,14.2
4,B4,0.321
5,B5,38.2
6,B6,0.467
7,B7,0.487
8,B8,0.474
9,B9,0.473
10,B10,1.29
11,B11,0.272
12,B12,0.654
13,B13,12.7
14,B14,0.665
15,B15,0.435
16,B16,0.504
17,B17,4.51
18,B18,0.376
19,B19,1.23
20,B20,0.465
21,B21,0.254
22,B22,0.389
